In the supplement of paper PMC8728848:
This is one part of the list.

Assays:
Assay in all cases: glycan array binding signal (z-score within array); higher = stronger binding
Conditions in all cases: glycan notation: IUPAC condensed, linker removed
[1] = biological target: Neu5Ac(a2-3)Gal(b1-4)Glc
Method in brief: (§1)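 The binding signal is a Z-score computed within each array. Data were drawn from 3228 arrays in the Consortium for Functional Glycomics database, restricted to those with a known protein sequence. Scores were averaged over arrays of the same protein sequence at different concentrations or buffers, and over linkers, and negative values can be taken as non-binding.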

[2] = biological target: Neu5Ac(a2-3)Gal(b1-4)GlcNAc
Method in brief: as §1

[3] = biological target: Neu5Ac(a2-3)Gal(b1-4)GlcNAc(b1-2)Man
Method in brief: as §1

[4] = biological target: Neu5Ac(a2-3)Gal(b1-4)GlcNAc(b1-2)Man(a1-3)[GlcNAc(b1-4)][Neu5Ac(a2-3)Gal(b1-4)GlcNAc(b1-2)Man(a1-6)]Man(b1-4)GlcNAc(b1-4)GlcNAc
Method in brief: as §1

[5] = biological target: Neu5Ac(a2-3)Gal(b1-4)GlcNAc(b1-2)Man(a1-3)[Neu5Ac(a2-3)Gal(b1-4)GlcNAc(b1-2)Man(a1-6)]Man(b1-4)GlcNAc(b1-4)GlcNAc
Method in brief: as §1

[6] = biological target: Neu5Ac(a2-3)Gal(b1-4)GlcNAc(b1-2)Man(a1-3)[Neu5Ac(a2-3)Gal(b1-4)GlcNAc(b1-2)Man(a1-6)]Man(b1-4)GlcNAc(b1-4)[Fuc(a1-6)]GlcNAc
Method in brief: as §1

[7] = biological target: Neu5Ac(a2-3)Gal(b1-4)GlcNAc(b1-2)Man(a1-3)[Neu5Ac(a2-6)Gal(b1-4)GlcNAc(b1-2)Man(a1-6)]Man(b1-4)GlcNAc(b1-4)GlcNAc
Method in brief: as §1

[8] = biological target: Neu5Ac(a2-3)Gal(b1-4)GlcNAc(b1-2)[Neu5Ac(a2-3)Gal(b1-4)GlcNAc(b1-4)]Man(a1-3)[GlcNAc(b1-4)][Neu5Ac(a2-3)Gal(b1-4)GlcNAc(b1-2)[Neu5Ac(a2-3)Gal(b1-4)GlcNAc(b1-6)]Man(a1-6)]Man(b1-4)GlcNAc(b1-4)GlcNAc
Method in brief: as §1

[9] = biological target: Neu5Ac(a2-3)Gal(b1-4)GlcNAc(b1-2)[Neu5Ac(a2-3)Gal(b1-4)GlcNAc(b1-4)]Man(a1-3)[GlcNAc(b1-4)][Neu5Ac(a2-3)Gal(b1-4)GlcNAc(b1-4)Man(a1-6)]Man(b1-4)GlcNAc(b1-4)GlcNAc
Method in brief: as §1

[10] = biological target: Neu5Ac(a2-3)Gal(b1-4)GlcNAc(b1-2)[Neu5Ac(a2-3)Gal(b1-4)GlcNAc(b1-6)]Man(a1-6)[Neu5Ac(a2-3)Gal(b1-4)GlcNAc(b1-2)Man(a1-3)]Man(b1-4)GlcNAc(b1-4)GlcNAc
Method in brief: as §1

[11] = biological target: Neu5Ac(a2-3)Gal(b1-4)GlcNAc(b1-2)[Neu5Ac(a2-3)Gal(b1-4)GlcNAc(b1-6)]Man(a1-6)[Neu5Ac(a2-3)Gal(b1-4)GlcNAc(b1-2)Man(a1-3)][GlcNAc(b1-4)]Man(b1-4)GlcNAc(b1-4)GlcNAc
Method in brief: as §1

[12] = biological target: Neu5Ac(a2-3)Gal(b1-4)GlcNAc(b1-3)Gal
Method in brief: as §1

[13] = biological target: Neu5Ac(a2-3)Gal(b1-4)GlcNAc(b1-3)Gal(b1-3)GlcNAc
Method in brief: as §1

[14] = biological target: Neu5Ac(a2-3)Gal(b1-4)GlcNAc(b1-3)Gal(b1-4)GlcNAc
Method in brief: as §1

[15] = biological target: Neu5Ac(a2-3)Gal(b1-4)GlcNAc(b1-3)Gal(b1-4)GlcNAc(b1-2)Man(a1-3)[Neu5Ac(a2-3)Gal(b1-4)GlcNAc(b1-3)Gal(b1-4)GlcNAc(b1-2)Man(a1-6)]Man(b1-4)GlcNAc(b1-4)GlcNAc
Method in brief: as §1

[16] = biological target: Neu5Ac(a2-3)Gal(b1-4)GlcNAc(b1-3)Gal(b1-4)GlcNAc(b1-3)Gal(b1-4)GlcNAc
Method in brief: as §1

[17] = biological target: Neu5Ac(a2-3)Gal(b1-4)GlcNAc(b1-3)Gal(b1-4)GlcNAc(b1-3)Gal(b1-4)GlcNAc(b1-2)Man(a1-3)[Neu5Ac(a2-3)Gal(b1-4)GlcNAc(b1-3)Gal(b1-4)GlcNAc(b1-3)Gal(b1-4)GlcNAc(b1-2)Man(a1-6)]GalNAc
Method in brief: as §1

[18] = biological target: Neu5Ac(a2-3)Gal(b1-4)GlcNAc(b1-3)Gal(b1-4)GlcNAc(b1-3)GalNAc
Method in brief: as §1

[19] = biological target: Neu5Ac(a2-3)Gal(b1-4)GlcNAc(b1-3)Gal(b1-4)GlcNAc(b1-3)[Neu5Ac(a2-3)Gal(b1-4)GlcNAc(b1-3)Gal(b1-4)GlcNAc(b1-6)]GalNAc
Method in brief: as §1

[20] = biological target: Neu5Ac(a2-3)Gal(b1-4)GlcNAc(b1-3)Gal(b1-4)GlcNAc(b1-6)[Gal(b1-3)]GalNAc
Method in brief: as §1

[21] = biological target: Neu5Ac(a2-3)Gal(b1-4)GlcNAc(b1-3)Gal(b1-4)[Fuc(a1-3)]GlcNAc
Method in brief: as §1

[22] = biological target: Neu5Ac(a2-3)Gal(b1-4)GlcNAc(b1-3)GalNAc
Method in brief: as §1

[23] = biological target: Neu5Ac(a2-3)Gal(b1-4)GlcNAc(b1-3)[Neu5Ac(a2-3)Gal(b1-4)GlcNAc(b1-6)]GalNAc
Method in brief: as §1

[24] = biological target: Neu5Ac(a2-3)Gal(b1-4)GlcNAc(b1-6)GalNAc
Method in brief: as §1

[25] = biological target: Neu5Ac(a2-3)Gal(b1-4)GlcNAc(b1-6)[Gal(b1-3)]GalNAc
Method in brief: as §1

[26] = biological target: Neu5Ac(a2-3)Gal(b1-4)GlcNAc(b1-6)[Neu5Ac(a2-3)Gal(b1-3)]GalNAc
Method in brief: as §1

[27] = biological target: Neu5Ac(a2-3)Gal(b1-4)GlcNAc6S
Method in brief: as §1

[28] = biological target: Neu5Ac(a2-3)Gal(b1-4)[Fuc(a1-3)]GlcNAc
Method in brief: as §1

[29] = biological target: Neu5Ac(a2-3)Gal(b1-4)[Fuc(a1-3)]GlcNAc(b1-2)Man
Method in brief: as §1

[30] = biological target: Neu5Ac(a2-3)Gal(b1-4)[Fuc(a1-3)]GlcNAc(b1-3)Gal
Method in brief: as §1

[31] = biological target: Neu5Ac(a2-3)Gal(b1-4)[Fuc(a1-3)]GlcNAc(b1-3)Gal(b1-4)GlcNAc
Method in brief: as §1

[32] = biological target: Neu5Ac(a2-3)Gal(b1-4)[Fuc(a1-3)]GlcNAc(b1-3)Gal(b1-4)[Fuc(a1-3)]GlcNAc(b1-3)Gal(b1-4)[Fuc(a1-3)]GlcNAc
Method in brief: as §1

[33] = biological target: Neu5Ac(a2-3)Gal(b1-4)[Fuc(a1-3)]GlcNAc(b1-3)GalNAc
Method in brief: as §1

[34] = biological target: Neu5Ac(a2-3)Gal(b1-4)[Fuc(a1-3)]GlcNAc(b1-6)[Gal(b1-3)]GalNAc
Method in brief: as §1

[35] = biological target: Neu5Ac(a2-3)Gal(b1-4)[Fuc(a1-3)]GlcNAc(b1-6)[Neu5Ac(a2-3)Gal(b1-3)]GalNAc
Method in brief: as §1

[36] = biological target: Neu5Ac(a2-3)Gal(b1-4)[Fuc(a1-3)]GlcNAc6S
Method in brief: as §1

[37] = biological target: Neu5Ac(a2-3)Gal6S(b1-4)GlcNAc
Method in brief: as §1

[38] = biological target: Neu5Ac(a2-3)Gal6S(b1-4)[Fuc(a1-3)]GlcNAc
Method in brief: as §1

B1: SP15308A-bot-339-19-339 (Bacteroides ovatus) (protein)
chain: ACNNEWEDEQYEQYISFKSPIPAGGEGVTDIYVRYKEDGKVTYRLPIVVSGSTTNTLDREVHIAVDKDTLETLNIERFSIHRPGLWYTALEEDKYDFPKTVHISAGSSVEQLNIDFNLQGIDMLEKWVLPLTIVDDPSYNYKSHPRKNYAKALLRVIPFNNYSGSYTSSAMKVYTYINGKPDTNARTANKRTGYVINDNTVFFYAGLISEDLDKEVREKYKINVHFNEDGTLHMEQGDPTNKMKFELIGTPTYSKTSVMDATRPYLERRYVQIMFEYDFEDFSYGGNGVDVIPIKYKVEGSMTLQRNINTQIPDEDQQIEW
B1 was tested, and the “glycan array binding signal (z-score)” value [1] was 0.997, the “glycan array binding signal (z-score)” value [2] was -0.021 and the “glycan array binding signal (z-score)” value [3] was -0.249. For the same binder, the “glycan array binding signal (z-score)” value [4] was -0.236, the “glycan array binding signal (z-score)” value [5] was -0.552 and the “glycan array binding signal (z-score)” value [6] was -0.039. For the same binder, the “glycan array binding signal (z-score)” value [7] was 0.133, the “glycan array binding signal (z-score)” value [8] was -0.001 and the “glycan array binding signal (z-score)” value [9] was -0.388. For the same binder, the “glycan array binding signal (z-score)” value [10] was 0.847, the “glycan array binding signal (z-score)” value [11] was -0.44 and the “glycan array binding signal (z-score)” value [12] was -0.268. For the same binder, the “glycan array binding signal (z-score)” value [13] was 0.117, the “glycan array binding signal (z-score)” value [14] was -0.729 and the “glycan array binding signal (z-score)” value [15] was 0.704. The “glycan array binding signal (z-score)” value [16] was -0.258, the “glycan array binding signal (z-score)” value [17] was 0.516 and the “glycan array binding signal (z-score)” value [18] was -0.51. For the same binder, the “glycan array binding signal (z-score)” value [19] was -0.103, the “glycan array binding signal (z-score)” value [20] was -0.214 and the “glycan array binding signal (z-score)” value [21] was 0.411. For the same binder, the “glycan array binding signal (z-score)” value [22] was 0.718, the “glycan array binding signal (z-score)” value [23] was -0.228 and the “glycan array binding signal (z-score)” value [24] was -0.192. The “glycan array binding signal (z-score)” value [25] was -0.225, the “glycan array binding signal (z-score)” value [26] was -0.543 and the “glycan array binding signal (z-score)” value [27] was -0.405. For the same binder, the “glycan array binding signal (z-score)” value [28] was -0.247, the “glycan array binding signal (z-score)” value [29] was 0.057 and the “glycan array binding signal (z-score)” value [30] was -0.135. The “glycan array binding signal (z-score)” value [31] was 0.266, the “glycan array binding signal (z-score)” value [32] was -0.053 and the “glycan array binding signal (z-score)” value [33] was 1.76. For the same binder, the “glycan array binding signal (z-score)” value [34] was 0.512, the “glycan array binding signal (z-score)” value [35] was 0.537 and the “glycan array binding signal (z-score)” value [36] was -0.15. For the same binder, the “glycan array binding signal (z-score)” value [37] was -0.364 and the “glycan array binding signal (z-score)” value [38] was -0.363.
